Test results as given in PubChem BioAssay AID360 (National Center for Advancing Translational Sciences (NCATS), 2006).
The campaign covered roughly 48,000 compounds. About 550 (1.1%) were called active. Not shown: some 4% with an inconclusive outcome. Cut-off read from the data, not from the text of the source: active = potency below about 15 µM; inconclusive = mostly about 16 µM to 33 µM; inactive = weaker than that. The list shows a part of the results.

Each compound was assayed against Lysosomal acid glucosylceramidase (Homo sapiens) (UniProt P04062) (assay: Glucocerebrosidase). Settings: purified enzyme, resorufin glucoside fluorescence (screen aimed at inhibitors), 20 min; series mostly up to 77 µM.
Sequence of UniProt P04062 (P04062 whole entry, looked up): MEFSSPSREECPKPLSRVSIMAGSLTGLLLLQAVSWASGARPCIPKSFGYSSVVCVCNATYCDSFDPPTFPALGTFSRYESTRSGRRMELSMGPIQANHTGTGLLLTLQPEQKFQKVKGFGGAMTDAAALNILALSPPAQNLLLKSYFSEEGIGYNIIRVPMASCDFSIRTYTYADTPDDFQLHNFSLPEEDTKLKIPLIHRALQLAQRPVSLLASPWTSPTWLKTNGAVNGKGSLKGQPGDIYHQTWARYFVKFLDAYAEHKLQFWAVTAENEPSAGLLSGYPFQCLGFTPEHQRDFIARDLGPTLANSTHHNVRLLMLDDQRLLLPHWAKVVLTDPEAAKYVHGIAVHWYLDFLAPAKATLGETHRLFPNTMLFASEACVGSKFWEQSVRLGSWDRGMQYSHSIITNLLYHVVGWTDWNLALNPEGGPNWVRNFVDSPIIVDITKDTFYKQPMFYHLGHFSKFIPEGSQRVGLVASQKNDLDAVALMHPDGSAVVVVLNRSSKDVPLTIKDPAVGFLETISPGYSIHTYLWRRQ
How it was run: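 Compounds titrated against 0.2 nM normal enzyme, 30 uM resorufin beta-D-glucopyranoside substrate, citrate/phosphate buffer with taurocholate and tween-20, pH 5.9. Reaction ran 20 min at room temperature; fluorescence (Ex 548/Em 600) gave AC50.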
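Note: the screen sought inhibitors.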
Potency is the fitted concentration of half-maximal effect.

Potency, inactive:
CCOC(=O)N1CCN(C(=O)C(CC)n2nc(C)c3sc4ccccc4c3c2=O)CC1 (stereo unspecified) > 76.9 µM, Cc1ccc(-c2cc(C(F)F)nc(NCC3CCCO3)n2)cc1 (stereo unspecified) > 76.9 µM, Cn1c(Cn2nnc3ccccc32)nnc1SCC(=O)N1CCc2ccccc21 > 76.9 µM, CCCc1[nH]nc2c1C(c1cccc(OC(=O)c3ccco3)c1)C(C#N)=C(N)O2 (stereo unspecified) > 76.9 µM, N#CCCn1c(SCC(=O)c2c[nH]c3ccccc23)nc2ccccc21, CCOC(=O)C1CCN(C(c2cc3c(C)ccc(C)c3[nH]c2=O)c2nnnn2C2CCCCC2)CC1 (stereo unspecified) > 76.9 µM, COC(=O)[C@@H](NC(=O)NCc1ccccc1Cl)C(C)C > 76.9 µM, N#CC1=C(N)Oc2n[nH]c(-c3ccc(F)cc3)c2C1c1ccncc1 (stereo unspecified) > 76.9 µM, COCCn1c(-c2ccc(OC)cc2)cnc1N, Cc1noc(C)c1COC(=O)CCc1ccc(S(=O)(=O)N2CCCCC2)cc1 > 76.9 µM, Cc1ccc(-n2nnnc2SC(C)C(N)=O)c(C)c1 (stereo unspecified) > 76.9 µM, CN(C)S(=O)(=O)c1ccc(N2CCOCC2)nc1 > 76.9 µM, CCCCCc1nnc(NC(=O)Cc2cccs2)s1 > 76.9 µM, Cc1cc(C(=O)Nc2sc3c(c2C#N)CCCC3)no1 > 76.9 µM, O=C(Nc1cccnc1)c1cn(-c2ccccc2)nc1-c1cccs1 > 76.9 µM, O=C1CC(N2CCN(c3ccc(S(=O)(=O)N4CCOCC4)cc3)CC2)C(=O)N1Cc1ccccc1 (stereo unspecified) > 76.9 µM, NS(=O)(=O)c1ccc(Nc2nc(-c3ccc(O)cc3)cs2)cc1 > 76.9 µM, Cn1ncc(C#N)c1/N=C/N(Cc1ccccc1)Cc1ccccc1 > 76.9 µM, Cc1ccc(C)c(N2CCN(C(=O)c3ccccc3Br)CC2)c1 > 76.9 µM, Cc1ccc(C(N)=O)cc1S(=O)(=O)Nc1cccc(C)c1C > 76.9 µM, Cc1ccc(-n2[nH]c(C)c(C=Nc3ccc(C)cn3)c2=O)cc1 > 76.9 µM, CCCCNc1nc2ccccc2n1CC(=O)N1CCc2ccccc2C1 > 76.9 µM, C=CCNC(=O)CCCC(=O)NCC=C > 76.9 µM, CCCCCc1nnc(NC(=O)C2CCCO2)s1 (stereo unspecified) > 76.9 µM, Cc1cccc(CNC(=O)c2ccccc2N)c1 > 76.9 µM, COc1ccc(OC)c(NC(=O)Cc2coc3ccc(C)cc23)c1 > 76.9 µM
